{
  "source": "the supplement of paper PMC8728848",
  "test_in_all_cases": "glycan array binding signal (z-score within array); higher = stronger binding",
  "conditions_in_all_cases": "glycan notation: IUPAC condensed, linker removed; mutation: H262T",
  "key": {"[1]": {"target": "Neu5Ac(a2-3)Gal(b1-4)GlcNAc(b1-2)Man(a1-3)[Neu5Ac(a2-6)Gal(b1-4)GlcNAc(b1-2)Man(a1-6)]Man(b1-4)GlcNAc(b1-4)GlcNAc", "how_it_was_run": "(§1)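 The Consortium for Functional Glycomics database supplied 3228 glycan arrays, of which those lacking an available protein sequence were dropped. The binding signal, a within-array Z-score, was averaged across arrays of the same protein sequence and across linkers. Negative scores can be read as non-binding.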"}, "[2]": {"target": "Neu5Ac(a2-3)Gal(b1-4)GlcNAc(b1-2)[Neu5Ac(a2-3)Gal(b1-4)GlcNAc(b1-4)]Man(a1-3)[GlcNAc(b1-4)][Neu5Ac(a2-3)Gal(b1-4)GlcNAc(b1-2)[Neu5Ac(a2-3)Gal(b1-4)GlcNAc(b1-6)]Man(a1-6)]Man(b1-4)GlcNAc(b1-4)GlcNAc", "how_it_was_run": "as §1"}, "[3]": {"target": "Neu5Ac(a2-3)Gal(b1-4)GlcNAc(b1-2)[Neu5Ac(a2-3)Gal(b1-4)GlcNAc(b1-4)]Man(a1-3)[GlcNAc(b1-4)][Neu5Ac(a2-3)Gal(b1-4)GlcNAc(b1-4)Man(a1-6)]Man(b1-4)GlcNAc(b1-4)GlcNAc", "how_it_was_run": "as §1"}, "[4]": {"target": "Neu5Ac(a2-3)Gal(b1-4)GlcNAc(b1-2)[Neu5Ac(a2-3)Gal(b1-4)GlcNAc(b1-6)]Man(a1-6)[Neu5Ac(a2-3)Gal(b1-4)GlcNAc(b1-2)Man(a1-3)][GlcNAc(b1-4)]Man(b1-4)GlcNAc(b1-4)GlcNAc", "how_it_was_run": "as §1"}, "[5]": {"target": "Neu5Ac(a2-3)Gal(b1-4)GlcNAc(b1-3)Gal", "how_it_was_run": "as §1"}, "[6]": {"target": "Neu5Ac(a2-3)Gal(b1-4)GlcNAc(b1-3)Gal(b1-3)GlcNAc", "how_it_was_run": "as §1"}, "[7]": {"target": "Neu5Ac(a2-3)Gal(b1-4)GlcNAc(b1-3)Gal(b1-4)GlcNAc", "how_it_was_run": "as §1"}, "[8]": {"target": "Neu5Ac(a2-3)Gal(b1-4)GlcNAc(b1-3)Gal(b1-4)GlcNAc(b1-2)Man(a1-3)[Neu5Ac(a2-3)Gal(b1-4)GlcNAc(b1-3)Gal(b1-4)GlcNAc(b1-2)Man(a1-6)]Man(b1-4)GlcNAc(b1-4)GlcNAc", "how_it_was_run": "as §1"}, "[9]": {"target": "Neu5Ac(a2-3)Gal(b1-4)GlcNAc(b1-3)Gal(b1-4)GlcNAc(b1-3)Gal(b1-4)GlcNAc", "how_it_was_run": "as §1"}, "[10]": {"target": "Neu5Ac(a2-3)Gal(b1-4)GlcNAc(b1-3)Gal(b1-4)GlcNAc(b1-3)Gal(b1-4)GlcNAc(b1-2)Man(a1-3)[Neu5Ac(a2-3)Gal(b1-4)GlcNAc(b1-3)Gal(b1-4)GlcNAc(b1-3)Gal(b1-4)GlcNAc(b1-2)Man(a1-6)]GalNAc", "how_it_was_run": "as §1"}, "[11]": {"target": "Neu5Ac(a2-3)Gal(b1-4)GlcNAc(b1-3)Gal(b1-4)GlcNAc(b1-3)GalNAc", "how_it_was_run": "as §1"}, "[12]": {"target": "Neu5Ac(a2-3)Gal(b1-4)GlcNAc(b1-3)Gal(b1-4)GlcNAc(b1-3)[Neu5Ac(a2-3)Gal(b1-4)GlcNAc(b1-3)Gal(b1-4)GlcNAc(b1-6)]GalNAc", "how_it_was_run": "as §1"}, "[13]": {"target": "Neu5Ac(a2-3)Gal(b1-4)GlcNAc(b1-3)Gal(b1-4)GlcNAc(b1-6)[Gal(b1-3)]GalNAc", "how_it_was_run": "as §1"}, "[14]": {"target": "Neu5Ac(a2-3)Gal(b1-4)GlcNAc(b1-3)Gal(b1-4)[Fuc(a1-3)]GlcNAc", "how_it_was_run": "as §1"}, "[15]": {"target": "Neu5Ac(a2-3)Gal(b1-4)GlcNAc(b1-3)GalNAc", "how_it_was_run": "as §1"}, "[16]": {"target": "Neu5Ac(a2-3)Gal(b1-4)GlcNAc(b1-3)[Neu5Ac(a2-3)Gal(b1-4)GlcNAc(b1-6)]GalNAc", "how_it_was_run": "as §1"}, "[17]": {"target": "Neu5Ac(a2-3)Gal(b1-4)GlcNAc(b1-6)GalNAc", "how_it_was_run": "as §1"}, "[18]": {"target": "Neu5Ac(a2-3)Gal(b1-4)GlcNAc(b1-6)[Gal(b1-3)]GalNAc", "how_it_was_run": "as §1"}, "[19]": {"target": "Neu5Ac(a2-3)Gal(b1-4)GlcNAc(b1-6)[Neu5Ac(a2-3)Gal(b1-3)]GalNAc", "how_it_was_run": "as §1"}, "[20]": {"target": "Neu5Ac(a2-3)Gal(b1-4)GlcNAc6S", "how_it_was_run": "as §1"}, "[21]": {"target": "Neu5Ac(a2-3)Gal(b1-4)[Fuc(a1-3)]GlcNAc", "how_it_was_run": "as §1"}, "[22]": {"target": "Neu5Ac(a2-3)Gal(b1-4)[Fuc(a1-3)]GlcNAc(b1-2)Man", "how_it_was_run": "as §1"}, "[23]": {"target": "Neu5Ac(a2-3)Gal(b1-4)[Fuc(a1-3)]GlcNAc(b1-3)Gal", "how_it_was_run": "as §1"}, "[24]": {"target": "Neu5Ac(a2-3)Gal(b1-4)[Fuc(a1-3)]GlcNAc(b1-3)Gal(b1-4)GlcNAc", "how_it_was_run": "as §1"}, "[25]": {"target": "Neu5Ac(a2-3)Gal(b1-4)[Fuc(a1-3)]GlcNAc(b1-3)Gal(b1-4)[Fuc(a1-3)]GlcNAc(b1-3)Gal(b1-4)[Fuc(a1-3)]GlcNAc", "how_it_was_run": "as §1"}, "[26]": {"target": "Neu5Ac(a2-3)Gal(b1-4)[Fuc(a1-3)]GlcNAc(b1-3)GalNAc", "how_it_was_run": "as §1"}, "[27]": {"target": "Neu5Ac(a2-3)Gal(b1-4)[Fuc(a1-3)]GlcNAc(b1-6)[Gal(b1-3)]GalNAc", "how_it_was_run": "as §1"}, "[28]": {"target": "Neu5Ac(a2-3)Gal(b1-4)[Fuc(a1-3)]GlcNAc(b1-6)[Neu5Ac(a2-3)Gal(b1-3)]GalNAc", "how_it_was_run": "as §1"}, "[29]": {"target": "Neu5Ac(a2-3)Gal(b1-4)[Fuc(a1-3)]GlcNAc6S", "how_it_was_run": "as §1"}, "[30]": {"target": "Neu5Ac(a2-3)Gal6S(b1-4)GlcNAc", "how_it_was_run": "as §1"}, "[31]": {"target": "Neu5Ac(a2-3)Gal6S(b1-4)[Fuc(a1-3)]GlcNAc", "how_it_was_run": "as §1"}, "Neu5Ac(a2-3)GalNAc": {"target": "Neu5Ac(a2-3)GalNAc", "how_it_was_run": "as §1"}, "[32]": {"target": "Neu5Ac(a2-3)GalNAc(b1-4)GlcNAc", "how_it_was_run": "as §1"}, "[33]": {"target": "Neu5Ac(a2-3)[GalNAc(b1-4)]Gal(b1-4)Glc", "how_it_was_run": "as §1"}, "[34]": {"target": "Neu5Ac(a2-3)[GalNAc(b1-4)]Gal(b1-4)GlcNAc", "how_it_was_run": "as §1"}, "[35]": {"target": "Neu5Ac(a2-3)[GalNAc(b1-4)]Gal(b1-4)GlcNAc(b1-3)GalNAc", "how_it_was_run": "as §1"}, "[36]": {"target": "Neu5Ac(a2-3)[Neu5Ac(a2-6)]GalNAc", "how_it_was_run": "as §1"}},
  "note": "Some of the results follow.",
  "data": [
    {"binder": "MGL6A (Homo sapiens) (protein) MTRTYENFQYLENKVKVQGFKNGPLPLQSLLQRLCSGPCHLLLSLGLGLLLLVIICVVGFQNSKFQRDLVTLRTDFSNFTSNTVAEIQALTSQGSSLEETIASLKAEVEGFKQERQAVHSEMLLRVQQLVQDLKKLTCQVATLNNNGEEASTEGTCCPVNWVEHQDSCYWFSHSGMSWAEAEKYCQLKNAHLVVINSREEQNFVQKYLGSAYTWMGLSDPEGAWKWVDGTDYATGFQNWKPGQPDDWQGHGLGGGEDCAHFTPDGRWNDDVCQRPYHWVCEAGLGQTSQESH", "values": [
      {"measurement": "glycan array binding signal (z-score)", "setting": "[1]", "result": -0.173},
      {"measurement": "glycan array binding signal (z-score)", "setting": "[2]", "result": -0.172},
      {"measurement": "glycan array binding signal (z-score)", "setting": "[3]", "result": -0.174},
      {"measurement": "glycan array binding signal (z-score)", "setting": "[4]", "result": -0.173},
      {"measurement": "glycan array binding signal (z-score)", "setting": "[5]", "result": -0.217},
      {"measurement": "glycan array binding signal (z-score)", "setting": "[6]", "result": -0.175},
      {"measurement": "glycan array binding signal (z-score)", "setting": "[7]", "result": -0.176},
      {"measurement": "glycan array binding signal (z-score)", "setting": "[8]", "result": -0.22},
      {"measurement": "glycan array binding signal (z-score)", "setting": "[9]", "result": -0.175},
      {"measurement": "glycan array binding signal (z-score)", "setting": "[10]", "result": -0.169},
      {"measurement": "glycan array binding signal (z-score)", "setting": "[11]", "result": -0.178},
      {"measurement": "glycan array binding signal (z-score)", "setting": "[12]", "result": -0.174},
      {"measurement": "glycan array binding signal (z-score)", "setting": "[13]", "result": -0.183},
      {"measurement": "glycan array binding signal (z-score)", "setting": "[14]", "result": -0.175},
      {"measurement": "glycan array binding signal (z-score)", "setting": "[15]", "result": -0.178},
      {"measurement": "glycan array binding signal (z-score)", "setting": "[16]", "result": -0.214},
      {"measurement": "glycan array binding signal (z-score)", "setting": "[17]", "result": 6.48},
      {"measurement": "glycan array binding signal (z-score)", "setting": "[18]", "result": -0.17},
      {"measurement": "glycan array binding signal (z-score)", "setting": "[19]", "result": -0.173},
      {"measurement": "glycan array binding signal (z-score)", "setting": "[20]", "result": -0.174},
      {"measurement": "glycan array binding signal (z-score)", "setting": "[21]", "result": -0.18},
      {"measurement": "glycan array binding signal (z-score)", "setting": "[22]", "result": -0.168},
      {"measurement": "glycan array binding signal (z-score)", "setting": "[23]", "result": -0.173},
      {"measurement": "glycan array binding signal (z-score)", "setting": "[24]", "result": -0.168},
      {"measurement": "glycan array binding signal (z-score)", "setting": "[25]", "result": -0.175},
      {"measurement": "glycan array binding signal (z-score)", "setting": "[26]", "result": -0.138},
      {"measurement": "glycan array binding signal (z-score)", "setting": "[27]", "result": -0.16},
      {"measurement": "glycan array binding signal (z-score)", "setting": "[28]", "result": -0.153},
      {"measurement": "glycan array binding signal (z-score)", "setting": "[29]", "result": -0.163},
      {"measurement": "glycan array binding signal (z-score)", "setting": "[30]", "result": -0.173},
      {"measurement": "glycan array binding signal (z-score)", "setting": "[31]", "result": -0.177},
      {"measurement": "glycan array binding signal (z-score)", "setting": "Neu5Ac(a2-3)GalNAc", "result": -0.17},
      {"measurement": "glycan array binding signal (z-score)", "setting": "[32]", "result": -0.169},
      {"measurement": "glycan array binding signal (z-score)", "setting": "[33]", "result": -0.074},
      {"measurement": "glycan array binding signal (z-score)", "setting": "[34]", "result": -0.174},
      {"measurement": "glycan array binding signal (z-score)", "setting": "[35]", "result": -0.172},
      {"measurement": "glycan array binding signal (z-score)", "setting": "[36]", "result": -0.174}
    ]}
  ]
}
